The structures appear in SMILES notation. Where a name gives a salt, the structure may show the parent alone. In all, about 2,800 compounds were measured (“cell viability relative to vehicle”: median about 0.98, lowest 2% from about 0.45 on). This is one part of the list.

The subject of this assay is NCI-H2228 alectinib-DTP. Kind of assay: cell viability relative to vehicle (fraction of vehicle); NCI-H2228 is an ALK-positive lung cancer line and DTP means drug-tolerant persister; higher = less growth inhibition. The following applies: 100 nM; treatment time 6 days. In outline: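 Parental NCI-H2228 cells and drug-tolerant persister cells (made with 1000 nM of a targeted drug for 13 days) were seeded in 384-well plates. The next day, the 3114-agent TargetMol anti-cancer compound library was added at 100 nM, with DMSO as vehicle. After 6 days, ATP was read with the CellTiter-Glo 3D Cell Viability Assay. Each value is cell viability relative to vehicle-treated cells.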
Regarding `CC(=O)O[C@]1(C(C)=O)CC[C@H]2[C@@H]3C[C@H](C)C4=CC(=O)CC[C@]4(C)[C@H]3CC[C@@]21C` [Medroxyprogesterone Acetate], the cell viability turned out to be 0.833. The molecule `O=C(O)c1cc(-c2ccccc2)nc2ccccc12` [Cinchophen] displayed a cell viability of 0.968. The value for `COc1cc2c(Oc3ccc4[nH]c(C)cc4c3F)ncnc2cc1OCCCN1CCCC1` [Cediranib] was 0.891; that for `O=c1nc(N2CCN(CC3CCCCC3)CC2)sc2c([N+](=O)[O-])cc(C(F)(F)F)cc12` was 0.985.

Regarding `COc1ccc(C(NC(=O)c2cnc(-c3cccnn3)[nH]c2=O)c2ccc(OC)cc2)cc1`, the cell viability turned out to be 0.898. With `Nc1nc(NCCc2ccc(O)cc2)nc2nc(-c3ccco3)nn12`, the cell viability came out at 1.13. Consider `Cc1nc(-c2cn3c(n2)-c2ccc(-c4cnn(C(C)(C)C(N)=O)c4)cc2OCC3)n(C(C)C)n1` [Taselisib], for which the cell viability was determined as 0.425.

Molecule `Cc1c(F)cc(C(=O)NC2CC2)cc1-c1ccc(C(=O)NCC(C)(C)C)cn1` [Losmapimod] registered a cell viability of 0.986. `CNC(C)C1CCC(N)C(OC2C(N)CC(N)C(OC3OCC(C)(O)C(NC)C3O)C2O)O1` (centres undefined) [Gentamycin sulfate]: the cell viability was determined as 0.869. To `COc1ccc(S(=O)(=O)N(C(C)=O)c2ccccc2/C=C/c2cc[n+]([O-])cc2)cc1` belongs 0.926; to `CC1(C)CC[C@]2(C(=O)O)CC[C@]3(C)C(=CC[C@@H]4[C@@]5(C)CC[C@H](O)[C@@](C)(CO)[C@@H]5CC[C@]43C)[C@@H]2C1` [Hederagenin], 1.17. The molecule `Cc1cc(C)c(/C=C2\C(=O)Nc3ccccc32)[nH]1` [Semaxanib] came in with a cell viability of 0.807.

As for `O=C(NOC[C@H](O)CO)c1ccc(F)c(F)c1Nc1ccc(I)cc1F`, the cell viability was found to be 0.773. `O=C1CC2(CCCC2)CC(=O)N1CCCCN1CCN(c2ncccn2)CC1` [Buspirone hydrochloride] came in with a cell viability of 1.04. The molecule `COc1ccc2c(c1)C(c1ccc(F)cc1)=C(CN1CCCC1)CO2` returned a cell viability of 1.19. For the molecule `CCC(=O)Oc1ccc2c(c1)CCC1C2CCC2(C)C(OC(=O)CC)CCC12` (stereo not drawn) [17-Beta-Estradiol-3,17-Dipropionate], the cell viability is 1.18. To `Nc1ncnc2c1c(I)cn2[C@@H]1O[C@H](CO)[C@@H](O)[C@H]1O` [5-Iodotubercidin] belongs 0.929; to `C[C@H](CCC(=O)O)[C@H]1CC[C@H]2[C@@H]3CC[C@@H]4C[C@H](O)CC[C@]4(C)[C@H]3C[C@H](O)[C@]12C` [Deoxycholic acid], 1.12; to `Nc1ccc2cc3ccc(N)cc3nc2c1` [Proflavine Hemisulfate], 1.23. The value for `O=C(NCCCNc1nc(Nc2cccc(CN3CCOCC3)c2)ncc1C1CC1)C1CCC1` was 0.948; that for `Cc1cc(CC(=O)O)n(C)c1C(=O)c1ccc(Cl)cc1` [Zomepirac Sodium] was 0.967. The value for `CN1CCN(CCOc2cc(OC3CCOCC3)c3c(Nc4c(Cl)ccc5c4OCO5)ncnc3c2)CC1` [Saracatinib] was 0.998; that for `CCOCC(O)COc1ccc(NC(=O)CC[S+](C)C)cc1` (centres undefined) [Suplatast tosilate] was 0.952; that for `O=C(O)c1ccc(CN2CCC(CN[C@@H]3C[C@H]3c3ccccc3)CC2)cc1` was 0.994. As for `O=C(/C=C\n1cnc(-c2cc(C(F)(F)F)cc(C(F)(F)F)c2)n1)NNc1ccccn1` [Verdinexor], the cell viability stood at 0.835.

Take `O=C(CCCCCCNC(=O)c1cnc(N(c2ccccc2)c2ccccc2Cl)nc1)NO` [Citarinostat]: the cell viability was found to be 1. To `CC1Cc2ccccc2N1NC(=O)c1ccc(Cl)c(S(N)(=O)=O)c1` (centres undefined) [Indapamide] belongs 1.01; to `CCC(=O)c1c(O)cc(O)cc1O` [Flopropione], 1.17; to `C=CC(=O)Nc1ccc2ncnc(Nc3cccc(Br)c3)c2c1`, 0.726. Consider `N#Cc1ccnc(N2C(=O)CC[C@H]2C(=O)N(c2cncc(F)c2)[C@H](C(=O)NC2CC(F)(F)C2)c2ccccc2Cl)c1` [Ivosidenib], for which the cell viability was 0.978. To `CNC(=O)c1cnn(-c2nc(N)c3ncn([C@@H]4O[C@H](CO)[C@@H](O)[C@H]4O)c3n2)c1` [Regadenoson] belongs 0.93.

For the molecule `O=c1cc(-c2ccc(O)c(-c3c(O)cc(O)c4c(=O)cc(-c5ccc(O)cc5)oc34)c2)oc2cc(O)cc(O)c12` [Amentoflavone], the cell viability is 0.999. With `COc1ccc(CCC(=O)c2ccc(O)cc2)c(OC)c1` [Loureirin A], the cell viability is 0.94.

Molecule `COc1ccccc1S(=O)(=O)Nc1ccc2c(c1)CN(C)C(=O)N2` came in with a cell viability of 1.13.

With `C1CCN2C[C@@H]3C[C@@H](CN4CCCC[C@@H]34)[C@H]2C1` [(-)-Sparteine sulfate pentahydrate], the cell viability turned out to be 0.87.

Turning to `CCN1CCN(c2cc3c(cc2F)c(=O)c(C(=O)O)cn3C2CC2)CC1` [Enrofloxacin], the cell viability stood at 0.897.

Take `CN(C(=O)CNC(=O)/C=C/c1cccc(Cl)c1)C1CCS(=O)(=O)CC1`: the cell viability amounted to 0.805.

Molecule `FC(F)c1nc2ccccc2n1-c1nc(N2CCOCC2)nc(N2CCOCC2)n1` yielded a cell viability of 0.837. The value for `COc1ccc(/C=C/C(=O)c2c(O)cc(OC)cc2OC)cc1` [Flavokawain A] was 1.13; that for `NC(=O)Cc1cc[nH]n1` [1H-Pyrazole-3-acetamide] was 0.863. The value for `COc1cc(NS(C)(=O)=O)ccc1Nc1c2ccccc2nc2ccccc12` [Amsacrine] was 0.71; that for `CN(C)c1ccc(/C=C2/C(=O)Nc3ccccc32)cc1` was 1.03. `Cc1nnc(NS(=O)(=O)c2ccc(N)cc2)s1` [Sulfamethizole] had a cell viability of 1.05. In turn, `O=C(O)COC(=O)Cc1ccccc1Nc1c(Cl)cccc1Cl` [Aceclofenac] had a cell viability of 1.09. With `CC(C)Oc1ccc(C(=O)N[C@H](CNC(=O)CN(C)C)Cc2ccc(-c3cn4cccc([C@H](C)O)c4n3)cc2)cc1Cl`, the cell viability amounted to 0.665. To `CC1(C)OCCn2c1nc1c(N3CCOCC3)nc(-c3cnc(N)nc3)nc12` belongs 0.684; to `C[C@@H]1C[C@H]2[C@@H]3CCC4=CC(=O)C=C[C@]4(C)[C@@]3(F)[C@@H](O)C[C@]2(C)[C@@]1(O)C(=O)CO` [Dexamethasone], 0.859. `COc1cc(O)cc(O)c1C(=O)/C=C/c1ccccc1` [Cardamonin]: the cell viability came out at 1.05. To `CC1(C)O[C@@H]2C[C@H]3[C@@H]4CCC5=CC(=O)C=C[C@]5(C)[C@@]4(F)[C@@H](O)C[C@]3(C)[C@]2(C(=O)CO)O1` [Triamcinolone acetonide] belongs 0.706.

`O=C(O)CCCc1ccccc1` [Sodium Phenylbutyrate] displayed a cell viability of 0.97. Molecule `Cc1cnc(NC(=O)C2=C(O)c3ccccc3S(=O)(=O)N2C)s1` [Meloxicam] displayed a cell viability of 0.968. To `COc1cc(O)c(C(=O)Nc2nc(C(=O)NCCN(C(C)C)C(C)C)cs2)cc1OC` [Acotiamide hydrochloride] belongs 0.908; to `Cc1cc([C@@H](C)Nc2ccccc2C(=O)O)c2nc(N3CCOCC3)cc(=O)n2c1`, 0.757; to `CC(C)(Oc1ccc(C(=O)c2ccc(Cl)cc2)cc1)C(=O)O` [Fenofibric acid], 1.01. In turn, `CCOc1nc2cccc(C(=O)O)c2n1Cc1ccc(-c2ccccc2-c2noc(=O)[nH]2)cc1` [Azilsartan] had a cell viability of 1.17. The value for `CCn1nc(C(=O)O)c(=O)c2cc3c(cc21)OCO3` [Cinoxacin] was 0.972; that for `Cc1cc(C)cc(C(=O)NOCCCCCC(=O)NO)c1` was 0.842. Take `N[C@@H]1CC[C@@H](c2ccc(Cl)c(Cl)c2)c2ccccc21` [Dasotraline hydrochloride]: the cell viability is 1.02. To `CCCc1nc(C)c2c(=O)nc(-c3cc(S(=O)(=O)N4CCN(CC)CC4)ccc3OCC)[nH]n12` [Vardenafil hydrochloride trihydrate] belongs 1.02. Regarding `CNC(=O)c1cc(COc2nnc(Nc3ccc(Cl)cc3)c3ccoc23)ccn1` [Telatinib], the cell viability amounted to 0.971.

Molecule `O=C1CCc2ccccc2C1` [Beta-Tetralone] displayed a cell viability of 0.95.

As to `COc1cc2nccc(Oc3ccc(NC(=O)C4(C(=O)Nc5ccc(F)cc5)CC4)cc3)c2cc1OC` [Cabozantinib], the cell viability turned out to be 0.872. The value for `COc1cc2nccc(Oc3ccc(NC(=O)C4(C(=O)Nc5ccc(F)cc5)CC4)cc3)c2cc1OC` [Cabozantinib Malate] was 0.725; that for `O=C(O)/C=C/c1ccc(Cn2ccnc2)cc1` [Ozagrel] was 1.05; that for `O=C(O)/C=C/c1ccc(Cn2ccnc2)cc1` [Ozagrel hydrochloride] was 0.927. The value for `C[C@]12CC[C@@H]3c4ccc(O)cc4CC[C@H]3[C@@H]1CC[C@H]2O` [17α-Estradiol] was 0.962. To `COc1cccc(/C=N/N(C(=O)C(F)(F)F)c2ccc(C)cc2C)c1` belongs 0.889; to `CNC(=O)[C@H](Cc1c[nH]c2ccccc12)NC(=O)[C@@H](CC(=O)NO)CC(C)C` [Ilomastat], 0.877. In turn, `CC(C)C1=CC2=CC[C@@H]3[C@](C)(CCC[C@@]3(C)C(=O)O)[C@H]2CC1` [Abietic Acid] came in with a cell viability of 0.994. The value for `Oc1ccc(OCc2ccccc2)cc1` [Monobenzone] was 1.15; that for `NC1(C(=O)N[C@@H](CCO)c2ccc(Cl)cc2)CCN(c2nc[nH]c3nccc2-3)CC1` [Capivasertib] was 0.829; that for `CC1=Nc2ccc(Cl)cc2S(=O)(=O)N1` [Diazoxide] was 0.974. To `Cc1ncc(NC(=O)c2ccc(CN3CCN(C)CC3)c(C(F)(F)F)c2)cc1Nc1nccc(-c2cccnc2)n1` [Flumatinib] belongs 1.15. The value for `Cc1cc(/N=N/c2ccc(S(=O)(=O)Nc3ccccn3)cc2)c(N)cc1O` was 0.977; that for `COc1cc(O)c(CC=C(C)C)c(O)c1C(=O)/C=C/c1ccc(O)cc1` [Xanthohumol] was 1.04; that for `CO[C@@]12[C@H](COC(N)=O)C3=C(C(=O)C(C)=C(N)C3=O)N1C[C@@H]1N[C@@H]12` [Mitomycin C] was 1.06. `CC(C(=O)O)c1ccc(N2Cc3ccccc3C2=O)cc1` (centres undefined) [Indoprofen] returned a cell viability of 1.08. The value for `CN(C)CCOc1ccc(/C(=C(/CCCl)c2ccccc2)c2ccccc2)cc1` [Toremifene citrate] was 0.936; that for `CN(C)CCOc1ccc(/C(=C(/CCCl)c2ccccc2)c2ccccc2)cc1` [Toremifene] was 1.19.
